Among all 150,000 compounds or so, about 540 (0.36%) showed an effect of 50% or more. The list shows a part of the results.
test system: Plasmodium falciparum; assay: Primary screen in NF54 nanoGlo assay, in single point, at 2uM, 72h; a lower Z score goes with more inhibition; assay type: functional, Erythrocyte; settings: timepoint 72 hour

Row | SMILES | % Inhibition | Z score
1 | O[C@@H](CNc1nc2cc(F)ccc2o1)c1cc(Cl)c2c(c1)OCCO2 | -1% | 0.11
2 | O=C(c1ccccc1Nc1nc(-c2ccccc2)c2cc(Br)ccc2n1)N1CCOCC1 | -13% | 1.94
3 | CCCC(C)C(=O)NCC(C)(O)COC (stereo unspecified) | -4% | 0.82
4 | C[C@@H](c1cccc(-c2ccc(Oc3ccc(N)cn3)cc2)c1)N1CCCC1 | -1% | 0.24
5 | CN1CCC[C@@]2(CCN(c3nc4ccccc4o3)C2)C1=O | -14% | 2.8
6 | COc1ccnc(Nc2cc(F)c(N3CCCC3)c(F)c2)n1 | 7% | -1.22
7 | O=C(NCCN1CCCC[C@@H]1CO)c1cc(-c2ccsc2)[nH]n1 | -2% | 0.29
8 | CC(C)n1ccc(C(=O)N2C[C@@H](C#N)[C@H](c3ccccc3)C2)n1 | -2% | 0.33
9 | CN1CCN(c2cc(CN[C@H]3CCCc4ccc(O)cc43)ccn2)CC1 | -2% | 0.29
10 | c1cc(CNc2nnc(-c3ccc4c(c3)OCO4)o2)n2ccnc2c1 | -4% | 0.93
11 | CC1(C)CC(Nc2oc(-c3cccnc3)nc2C#N)CC(C)(C)N1 | 0% | -0.03
12 | Cc1ccc(C(=O)N2CC3CCCC(C2)N(C)C3=O)cc1OCCCN (stereo unspecified) | -12% | 2.11
13 | Nc1nc(NCc2cccc3c2OCCCO3)nc2ccccc12 | 2% | -0.49
14 | CCCNc1ncc(CN2CCN(c3cc(N)nc(N)n3)CC2)cn1 | -8% | 1.28
15 | N#Cc1cc(Br)cnc1NCCNC1CCCCCC1 | -6% | 0.85
16 | Cc1nc(NCC2CCN(CC#N)CC2)c2c(C)csc2n1 | -2% | 0.3
17 | Cc1nccc(NCC(C)(C)CN(C)C)n1 | 5% | -0.93
18 | O=C(c1cc(C(F)(F)F)[nH]n1)N1CC[C@](CO)(c2ccccc2)C1 | 8% | -1.37
19 | CN(C)CCN1CCC(NC(=O)N2CCCC[C@@H]2CCn2ccnc2)CC1 | -10% | 1.64
20 | Cc1nccn1-c1cncc(N(C)Cc2ccccc2O)n1 | -7% | 1.58
21 | Cc1sc2ccccc2c1CN1CCN2C(=O)CN(C)C(=O)[C@@H]2C1 | -8% | 1.41

Row | SMILES | % Inhibition | Z score
22 | CCS(=O)(=O)C1CCN(C(=O)c2cc(O)cc(O)n2)CC1 | -2% | 0.28
23 | Cc1ccc(-c2cccc(NC(=O)NCCN3CCC(CO)CC3)c2)cc1 | 6% | -0.87
24 | COc1ccc2oc(C)c(C(=O)[C@H](C#N)c3nc4ccccc4o3)c2c1 | -9% | 1.58
25 | O=S(=O)(Nc1cccc(N2CCC(N3CCN(c4ccccn4)CC3)CC2)c1)c1ccc(F)cc1 | 1% | -0.23
26 | CCN(Cc1ccc2[nH]ccc2c1)C(=O)c1nn(-c2ccccc2F)cc1O | -10% | 1.68
27 | O=C(c1ccnc(-c2ccc(Cl)cc2)n1)N1CCOCC2(CCOCC2)C1 | 0% | 0.01
28 | CO[C@H](c1nc(-c2cnc(C3CCCC3)nc2N)no1)C1CC1 | -5% | 1.07
29 | Cc1ncsc1CNc1ccc(C(=O)N2CCOCC2)c(F)c1 | -2% | 0.24
30 | CN1CCN(C2COCC2NC(=O)CC2CCNCC2)CC1 (stereo unspecified) | 1% | -0.2
31 | COC[C@H](C)C1CCN(S(=O)(=O)C(C)C)CC1 | 1% | -0.13
32 | Cc1c[nH]c(CN(C)C(=O)[C@H]2CCCN(C3CCN(CCc4ccccc4)CC3)C2)n1 | 10% | -1.73
33 | CN(Cc1cc(-c2ccncc2)no1)c1ncnc2[nH]ccc12 | -13% | 2.74
34 | CCNc1ccnc(N[C@@H](C)c2nc3ccccc3[nH]2)n1 | -10% | 1.76
35 | COCCOCCCCNc1cnc2cc(F)c(F)cc2n1 | -10% | 1.96
36 | N#CC[C@@H](O)CN1CCCC(CN2CCN(c3ccccn3)CC2)C1 (stereo partly specified) | -9% | 1.53
37 | CC(C)(C)c1cc(C(=O)N2C[C@H]3CCC[C@@]3(c3nc(Cc4ccccc4)no3)C2)[nH]n1 | -9% | 1.62
38 | Cc1ncc(CN(C)C(=O)[C@@H](NC(N)=O)C(C)(C)C)s1 | -4% | 0.63
39 | CN(C)CCN(Cc1cccc2cnccc12)C[C@H]1CCCN(Cc2ccccc2F)C1 | -4% | 0.72
40 | CCn1c(-c2cnccn2)nnc1N1CCO[C@H](C(C)C)C1 | 8% | -1.77
41 | O[C@@]1(CN2CCN(CCc3ccccc3)CC2)CCCNCC1 | 11% | -2.24
42 | OC1CCN(c2ccnc(NC[C@@H](c3ccccc3)N3CCCCCC3)n2)CC1 | 5% | -0.92

Row | SMILES | % Inhibition | Z score
43 | c1cc(N2CCN(c3nccc(N[C@H]4CCCOC4)n3)CC2)c2cc[nH]c2c1 | 6% | -0.99
44 | c1cc2c(cc1CCN1CCCN(CC3CCCCC3)CC1)OCCO2 | -5% | 1.06
45 | CC[C@H]1CN(C(=O)CN(C)C)CC(=O)N[C@H](C)C(=O)N[C@@H](CC(C)C)C(=O)N[C@@H](Cc2ccccc2)C(=O)N1 | -6% | 1.4
46 | CO[C@H]1C[C@@H](CN2CCCC2)N(c2ncnc3[nH]ccc23)C1 | 4% | -0.78
47 | Cc1cc(N[C@H]2CCOC2)c2ccc(C(F)(F)F)cc2n1 | -3% | 0.66
48 | CCc1cc(NCc2cccc(CN3CCCC3)c2)ncn1 | 0% | 0.03
49 | Nc1cc(-c2cc(F)cc3sc(N)nc23)c2cc[nH]c2n1 | -4% | 0.87
50 | Oc1cccc2c1CCC[C@@H]2NCc1ccc2occc2c1 | 32% | -5.46
51 | CN1CCCN(CCCNC(=O)c2ccnc(-n3cccn3)c2)CC1 | -6% | 0.92
52 | COc1ccc(CCN2CCC(CNS(=O)(=O)c3cc(-c4cc(C)no4)ccc3OC)CC2)cc1 | -5% | 0.8
53 | CCN1CCOC(CNS(=O)(=O)Cc2cc(C)no2)C1c1ccccc1 (stereo unspecified) | -2% | 0.37
54 | NC(=O)CN1CCC[C@H](C(=O)N(CCc2c[nH]c3ccccc23)Cc2cccnc2)C1 | 0% | 0.01
55 | c1ccc(CN2CCN(CCN3CCC[C@@]4(CCNC4)C3)CC2)cc1 | 6% | -1.39
56 | Nc1nccnc1C(=O)Nc1ccccc1N1CCC(O)CC1 | -18% | 3.16
57 | c1cc(CNC2CCN(C[C@H]3CCOC3)CC2)c2cc[nH]c2c1 | 34% | -5.22
58 | Cc1nn(C(=O)c2c[nH]c3ccccc23)c(N)c1-c1ccccc1 | -4% | 0.69
59 | CC(C)(C)NC(=O)N1CCC(CNc2ncnc3ccc(Cl)cc23)CC1 | 0% | 0.05
60 | Cc1ccc2cc(CNC(C)C3CN(C)CCN3C)ccc2n1 (stereo unspecified) | 2% | -0.3
61 | CC1CN(c2ccc(CNC(=O)c3cc(-c4ccco4)[nH]n3)cn2)CC(C)O1 (stereo unspecified) | -3% | 0.52
62 | Cn1c(CNC2CC(C)(C)NC(C)(C)C2)nc2cc(C(F)(F)F)ccc21 | -6% | 0.95
63 | c1ccc(CN2CC3CCCCC(NCc4ccnc(OC5CCOC5)c4)C3C2)cc1 (stereo unspecified) | -7% | 1.2

Row | SMILES | % Inhibition | Z score
64 | O=C(NCCc1ccccc1)[C@H]1CCCN(C2CCN(c3ncnc4[nH]ccc34)CC2)C1 | -3% | 0.58
65 | CN1CCCN(C[C@H]2CCCN2Cc2ccccc2)CC12CCNCC2 | 12% | -1.77
66 | COc1ccc2oc([C@H](C)NC(=O)c3cnc4[nH]c(=O)[nH]c4c3)c(C)c2c1 | 3% | -0.39
67 | NC(=O)c1ccccc1OCC#CCNC(=O)C(=O)c1c[nH]c2ccccc12 | -14% | 2.43
68 | CN(C[C@H]1COCCO1)C(=O)CCCC(=O)c1ccccc1 | -4% | 0.88
69 | CC1(C(=O)NCC(c2ccccc2)c2c[nH]c3ccccc23)Cc2ccccc2C(=O)O1 (stereo unspecified) | -2% | 0.26
70 | Nc1nc(NCCc2nccc(-c3ccccc3)n2)cc(C2CC(N)C2)n1 (stereo unspecified) | 3% | -0.6
71 | Cc1ccccc1[C@@H]1c2[nH]c3ccccc3c2CCN1C(=O)c1ccc2c(c1)C(=O)N(C)C2=O | -5% | 0.79
72 | Clc1cc(Cl)c2nc(Cc3nc(-c4c[nH]c5ncccc45)cs3)cn2c1 | -3% | 0.52
73 | CC1CN(c2ccc(NC(=O)c3cc4cc(F)ccc4[nH]3)cn2)CC(C)O1 (stereo unspecified) | 4% | -0.67
74 | OC[C@H](CN1CCCCC1)Nc1cc(C(F)(F)F)nc(-c2ccncc2)n1 | 5% | -0.76
75 | CCn1ccnc(N(C)CC(C)(C)O)c1=O | -8% | 1.68
76 | CCOc1cc(C(=O)N(CC)c2ccc3[nH]ccc3c2)ccc1OCc1ccncc1 | 3% | -0.67
77 | COc1ccc2[nH]nc(CN3CCC(C4CCN(C)CC4)CC3)c2c1 | 6% | -0.99
78 | C[C@H](Nc1ncnc2c(F)cccc12)c1cccc(-n2ccnc2)c1 | 3% | -0.63
79 | c1cc2sccc2c(N2CCN(Cc3ccc4cn[nH]c4c3)CC2)n1 | -10% | 1.49
80 | CCN1CCN(Cc2cc(C)cc(CNCc3csc(-c4cnccn4)n3)c2C)CC1 | 4% | -0.74
81 | Nc1ncc(-c2ccc(C(=O)NC[C@H]3CC[C@H](CO)CC3)cc2)cc1Cl | -6% | 1.02
82 | CN1CCC2(CC1)CN(c1nccc(N3CCC[C@H](O)C3)n1)CCN2C | 14% | -2.72
83 | Cc1nn(C)cc1-c1ccnc(NC2CCN(Cc3cccnc3)CC2)n1 | -3% | 0.56
